From PubChem BioAssay AID686979 (National Center for Advancing Translational Sciences (NCATS), 2013)
In all, about 420,000 compounds went through this assay and about 50,000 (12%) were called active. The shares of active, inactive and inconclusive entries below differ from those in the screen. Calls come from the whole dose curve; as a rule, active = well fitted inhibition curve with a large enough effect; inconclusive = small, poorly fitted or top-dose-only effect; inactive = flat fitted curve, though single readings scatter. Potencies of inconclusive entries are left out as doubtful fits.

assay: qHTS for Inhibitors of human tyrosyl-DNA phosphodiesterase 1 (TDP1): qHTS in cells in presence of CPT; settings: chicken DT40 Tdp1-/-;hTDP1 cells + 20 nM CPT, ATP luminescence, 48 h; series mostly up to 46.2 µM; note: nearly all actives have a fitted effect of over 55% in size
How it was run: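 Chicken DT40 Tdp1-/- cells complemented with human TDP1, 400 cells/well, exposed to compounds plus 20 nM camptothecin for at least 48 h at 37 C; viability read as ATP content by CellTiter-Glo luminescence.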
Potency is the fitted concentration of half-maximal effect; tags give direction and shape of the fitted curve.

SMILES | Potency
COc1ccc(-n2nc(C(=O)NCCc3ccc(OC)c(OC)c3)c3c4ccccc4n(C)c3c2=O)cc1 | active: 16.4 µM
CCCOc1ccc(-c2nnn(CC(=O)N3CCCC(C)C3)n2)cc1 (stereo not given) | inconclusive [inhibitor, partial curve, poor fit]
CN(CC(=O)Nc1cccc(F)c1)C(=O)c1ccc2c(c1)S(=O)(=O)N=C1CCCCCN12 | inactive
COc1ccc(NC2=CC(c3ccccc3)N(c3ccc(OC)cc3)C2=O)cc1 (stereo not given) | inconclusive [inhibitor, partial curve]
Cc1ccc(NC(=O)C2CCN(S(=O)(=O)c3cccc4nonc34)CC2)nc1 | inactive
CN1CCN(NC(=O)C23CC4CC(CC(C4)C2)C3)CC1 | inconclusive [inhibitor, partial curve]
CCC(C(=O)Nc1cc(C(F)(F)F)ccc1Cl)n1nc(C)c2sc3ccccc3c2c1=O (stereo not given) | active: 23.1 µM
COc1cc(C(=O)N(Cc2ccccc2)c2cccc(C)c2)ccc1OC(F)F | inconclusive [inhibitor, partial curve]
CC(C)c1ccc(NC(=O)c2cc(Br)ccc2Br)cc1 | inconclusive [inhibitor, single point]
COc1ccccc1C1CCN(Cc2cccc3ccccc23)CC1 | inconclusive [inhibitor, partial curve, poor fit]
NS(=O)(=O)c1ccc(CNC(=O)c2cccc(S(=O)(=O)N3CCc4ccccc43)c2)cc1 | inconclusive [inhibitor, single point]
COc1ccc(C(=O)NCC(c2ccc(Cl)cc2)N2CCCCC2)cc1 (stereo not given) | active: 14.6 µM
O=C1N/C(=N/N=C/c2ccc(O)cc2)SC1Cc1ccccc1 (stereo not given) | inactive
CCN=c1scc(-c2cccs2)n1/N=C/c1cc(OC)ccc1O | inconclusive [inhibitor, single point]
COc1cccc(CNC(=O)c2sc3ncccc3c2-n2c(C)ccc2C)c1OC | active: 10.3 µM
O=C(NCCc1ccccc1Cl)C1CCC(=O)N(Cc2cccc(C(F)(F)F)c2)C1 (stereo not given) | inconclusive [inhibitor, single point]
COc1ccc(-c2noc(CSc3nc4ccc(C)cc4[nH]3)n2)cc1 | active: 20.6 µM
CCOC(=O)Cc1csc(NC(=O)c2ccco2)n1 | inactive
CCc1ccc(C(=O)NC(=S)NCc2cccnc2)cc1 | inconclusive [inhibitor, single point]
Clc1ccc(/C=N/Nc2nnc(-c3ncc[nH]3)c3ccccc23)cc1 | inconclusive [inhibitor, single point]
